The whole screen tested about 310,000 compounds, of which about 14,000 (4.5%) showed an effect of 50% or more. Effects have a minus sign here. This is one part of the list.
Target: human ether-à-go-go-related gene (hERG) potassium channel (human, UniProt Q12809)
Test: primary screen, population patch clamp on CHO cells stably expressing hERG
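Also: peak tail current of the secondary pulse compared with the same well before compound.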

Sequence of human ether-à-go-go-related gene (hERG) potassium channel (Q12809 whole entry, looked up): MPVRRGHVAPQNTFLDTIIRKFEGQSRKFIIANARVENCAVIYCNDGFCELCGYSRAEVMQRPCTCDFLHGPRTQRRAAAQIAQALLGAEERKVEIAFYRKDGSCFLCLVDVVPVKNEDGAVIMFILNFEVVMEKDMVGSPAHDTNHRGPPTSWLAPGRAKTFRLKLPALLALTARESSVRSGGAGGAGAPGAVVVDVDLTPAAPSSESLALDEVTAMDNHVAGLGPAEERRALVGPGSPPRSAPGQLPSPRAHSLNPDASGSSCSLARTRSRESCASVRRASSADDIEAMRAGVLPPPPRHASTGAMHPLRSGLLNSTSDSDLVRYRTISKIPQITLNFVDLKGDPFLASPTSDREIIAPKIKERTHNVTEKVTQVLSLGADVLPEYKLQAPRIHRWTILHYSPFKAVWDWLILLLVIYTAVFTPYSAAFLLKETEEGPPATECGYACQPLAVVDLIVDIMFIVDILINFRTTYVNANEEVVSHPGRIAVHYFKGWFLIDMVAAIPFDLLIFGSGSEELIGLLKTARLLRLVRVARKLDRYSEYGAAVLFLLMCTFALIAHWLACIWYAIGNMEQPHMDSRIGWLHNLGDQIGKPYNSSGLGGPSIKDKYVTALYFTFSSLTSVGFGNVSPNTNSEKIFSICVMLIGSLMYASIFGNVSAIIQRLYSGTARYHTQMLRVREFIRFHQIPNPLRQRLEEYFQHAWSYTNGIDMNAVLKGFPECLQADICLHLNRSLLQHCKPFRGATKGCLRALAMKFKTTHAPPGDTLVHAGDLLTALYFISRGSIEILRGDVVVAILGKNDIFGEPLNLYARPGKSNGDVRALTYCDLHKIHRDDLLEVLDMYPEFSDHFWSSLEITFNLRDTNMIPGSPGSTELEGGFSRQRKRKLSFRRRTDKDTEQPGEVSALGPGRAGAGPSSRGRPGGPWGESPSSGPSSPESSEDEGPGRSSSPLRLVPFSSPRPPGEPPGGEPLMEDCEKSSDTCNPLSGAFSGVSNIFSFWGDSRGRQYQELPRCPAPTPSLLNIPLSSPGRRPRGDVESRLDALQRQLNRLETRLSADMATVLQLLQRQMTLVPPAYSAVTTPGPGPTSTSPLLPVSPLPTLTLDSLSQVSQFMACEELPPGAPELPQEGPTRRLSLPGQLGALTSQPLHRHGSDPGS

Compound	hERG current change (%, negative = inhibition) at 10uM [%]
O=C(C1=C[C@@H](C2CCCCC2)C[C@@H](OCc2ccc(CO)cc2)O1)N1CCN(Cc2ccc3c(c2)OCO3)CC1	4.46
COc1cc(OC)cc(C2=NC3(CCC(C)CC3)NC2=S)c1 (stereo not shown)	-22.8
COC(=O)CSc1nc2ccccn2c(=O)c1C=O	13.2
COc1ccc(OC)c(Nc2nc(N)nc(-c3cc4ccccc4o3)n2)c1	1.24
CC(=O)c1cnc(Oc2cc(Cl)ccc2Cl)nc1C	0.763
Cc1cccc(OCC(=O)Nc2ccc3oc(=O)ccc3c2)c1C	18.3
CCOC(=O)C(CCCCCCC(NC(C)=O)(C(=O)OCC)C(=O)OCC)(NC(C)=O)C(=O)OCC	6.26
O=C(CN(c1ccc2c(c1)OCCO2)S(=O)(=O)c1ccccc1)Nc1ccc2c(c1)OCO2	3.6
O=C(Nc1ccc(Cn2ccnc2)cc1)c1cccc(C(F)(F)F)c1	2.5
Cc1ccc(O)c(Nc2c3ccccc3nc3ccccc23)c1	-52.8
O=C1CCC/C(=N\NC(=O)c2ccc(COc3cccc4cccnc34)cc2)C1	8.37
CCn1cc(CN2CCC(C(=O)Nc3cccc(-c4cccc(Cl)c4)c3)CC2)c(C)n1	-78.9
COc1ccc(OC)c(-n2nnnc2SCC(=O)N2CCN(C(=O)c3ccco3)CC2)c1	-18.5
NS(=O)(=O)c1cccn1-c1ncc(C(F)(F)F)cc1Cl	2.8
Cc1cccc(OCc2nnc(SCc3nc4ccccc4c(=O)[nH]3)o2)c1	9.1
CNS(=O)(=O)c1ccc2c3c(cccc13)C(=O)N2C	4.64
CN1CCC(NCCC(c2ccc(F)cc2)c2ccc(Cl)cc2)CC1 (stereo not shown)	-71.5
O=c1cc(N2CCCCCC2)[nH]c(=O)n1-c1ccc(Cl)cc1	12.3
Cc1cc(C)c(C(=O)/C=C/c2cccc3ccccc23)c(=O)[nH]1	-18.1
CCOc1ccc(NC(=O)CNC(=O)COc2ccccc2)cc1	4.67
NC1=NC(=O)/C(=C/c2cccc(-c3ccc(S(N)(=O)=O)cc3)c2)S1	-3.67
C#CCSc1nc(C)cc(C(=O)OCC)c1C#N	-9.19

Compound	hERG current change (%, negative = inhibition) at 10uM [%]
Cn1c(SCC(=O)c2ccc(F)cc2)ncc(C(=O)Nc2ccccc2)c1=O	9.49
CCCn1c(SCC(=O)Nc2cccc(C)n2)nc2c1c(=O)n(C)c(=O)n2C	-40.9
CC(OC(=O)c1ccc2c(=O)n3c(nc2c1)CCCCC3)C(=O)Nc1ccc(Cl)cn1 (stereo not shown)	-9.54
COC(=O)c1sc(NC(=O)CSc2nc3cccnc3n2C)nc1C	-4
O=S(=O)(c1ccc(F)cc1)N1CCn2c(nc3ccccc32)C1	12.3
Cc1nc(Oc2ccccc2)c2ccsc2n1	-8.85
CN1CCC(N(C)C(=O)Cc2ccccc2[N+](=O)[O-])CC1	10.5
O=C(CCSCCc1ccccn1)Nc1cccc([N+](=O)[O-])c1	-31.3
O=C(/C=C/c1ccc(Cl)c(C(F)(F)F)c1)N1CCN(c2ccccn2)CC1	-16.5
Cc1[nH]nc(-c2ccc(OCc3cnn(-c4ccccc4)c3)cc2O)c1Oc1ccc(F)cc1	22.6
COC(=O)c1cc(NC(=O)c2cc(C(C)(C)C)nn2Cc2ccc(F)cc2)ccc1N1CCOCC1	-3.46
Cc1nc2ccc(N3C(=O)CCC3=O)cc2[nH]1	12.7
O=C(CN1CCC2(CC1)OCCO2)c1c[nH]c2ccccc12	3.65
Cc1cc(NC(=O)C(C)SCC(=O)Nc2ccccc2N2CCCC2)no1 (stereo not shown)	15.1
Cc1nc(COC(=O)c2c(C)nn(-c3ccccc3)c2C)cs1	-2.05
COc1ccc(CCNC(=O)c2cc3c(=O)n(C)c4ccccc4c3n2C)cc1OC	-7.82
Clc1ccc(OCc2nnc(-c3ccccc3Br)o2)cc1	2.44
O=C(Nc1cccc(O)c1)c1cc(-c2ccco2)on1	15.7
COc1cccc(CNC(=O)Cn2c(=O)oc3ccccc32)c1OC	5.28
Cn1c(=O)c2c(SCc3cccc(C(F)(F)F)c3)nc(-c3ccco3)nc2n(C)c1=O	-3.88
CCOC(=O)c1c(NC(=O)CSc2nc3cc(Cl)ccc3c(=O)n2Cc2ccco2)sc(C(=O)N(C)C)c1C	0.665
